Assay results as given in the supplement of paper PMC7826260.
The list shows a part of the results. Each Rep nickase domain was tested in vitro on the same pool of single strands for 1 h at 37 °C with 3 µM enzyme; only the middle of the 90-letter strands is printed. The score is log2 (uncut reads / reads without enzyme); more negative means more cut, near 0 not cut, and no call is made. Counts are relative to all reads, so uncut sequences can rise above 0 when many others are cut.

Experiments:
Assay in all cases: uncleaved DNA left, log2 of reads against the no-enzyme library (log2 ratio); higher = less cleavage (more negative = more Rep cleavage of the k-mer); sequences stand for … in CTCGTCCG…ACCGGAGA
[1] = tested on: T1, Rep nickase domain of Muscovy duck circovirus
T1 sequence (Rep 1-111, printed without the tag): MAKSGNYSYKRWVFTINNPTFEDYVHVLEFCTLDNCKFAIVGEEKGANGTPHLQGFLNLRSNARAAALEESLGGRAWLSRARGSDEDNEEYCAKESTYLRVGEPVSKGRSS
Procedure: (§1)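 A pool of 90-nt single-stranded DNAs with seven random bases just before the constant AC of the nick site (name = the seven bases) was cut by 3 µM recombinant His6-SUMO-tagged Rep nickase domain (300 nM DNA, 50 mM HEPES pH 8.0, 50 mM NaCl, 1 mM MnCl2, 1 h, 37 °C, three replicates). Uncut DNA was amplified and sequenced.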

[2] = tested on: T2, Rep nickase domain of banana bunchy top virus
T2 sequence (Rep 1-94, printed without the tag): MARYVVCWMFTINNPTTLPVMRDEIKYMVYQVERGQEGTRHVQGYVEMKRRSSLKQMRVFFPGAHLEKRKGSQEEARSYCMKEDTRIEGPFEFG
Procedure: as §1

[3] = tested on: T3, Rep nickase domain of cabbage leaf curl virus
T3 sequence (Rep 1-116, printed without the tag): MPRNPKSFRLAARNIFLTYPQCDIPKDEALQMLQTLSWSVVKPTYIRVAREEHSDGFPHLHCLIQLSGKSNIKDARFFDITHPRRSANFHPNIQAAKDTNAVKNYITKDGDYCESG
Procedure: as §1

[4] = tested on: T4, Rep nickase domain of chickpea chlorotic dwarf virus
T4 sequence (Rep 1-124, printed without the tag): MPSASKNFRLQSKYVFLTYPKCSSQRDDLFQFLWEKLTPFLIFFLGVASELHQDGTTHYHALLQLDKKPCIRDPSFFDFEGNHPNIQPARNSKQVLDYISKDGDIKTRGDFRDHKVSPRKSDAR
Procedure: as §1

[5] = tested on: T5, Rep nickase domain of faba bean necrotic yellows virus
T5 sequence (Rep 1-98, printed without the tag): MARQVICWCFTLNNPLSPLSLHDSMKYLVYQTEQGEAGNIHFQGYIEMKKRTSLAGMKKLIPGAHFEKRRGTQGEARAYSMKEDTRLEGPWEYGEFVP
Procedure: as §1

[6] = tested on: T6, Rep nickase domain of maize striate mosaic virus
T6 sequence (Rep 1-117, printed without the tag): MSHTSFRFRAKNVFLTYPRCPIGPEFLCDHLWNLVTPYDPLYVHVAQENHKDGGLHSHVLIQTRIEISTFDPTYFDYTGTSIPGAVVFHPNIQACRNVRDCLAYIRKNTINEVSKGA
Procedure: as §1

[7] = tested on: T7, Rep nickase domain of porcine circovirus 2
T7 sequence (Rep 2-116, printed without the tag): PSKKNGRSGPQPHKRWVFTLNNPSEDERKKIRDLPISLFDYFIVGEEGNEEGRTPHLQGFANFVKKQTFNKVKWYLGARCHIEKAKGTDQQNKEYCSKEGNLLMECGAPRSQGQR
Procedure: as §1

[8] = tested on: T8, Rep nickase domain of tomato golden mosaic virus
T8 sequence (Rep 1-124, printed without the tag): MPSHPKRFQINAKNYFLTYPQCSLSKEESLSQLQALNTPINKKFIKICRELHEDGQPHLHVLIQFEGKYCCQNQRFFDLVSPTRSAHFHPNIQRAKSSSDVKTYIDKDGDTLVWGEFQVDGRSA
Procedure: as §1

[9] = tested on: T9, Rep nickase domain of tomato yellow leaf curl virus
T9 sequence (Rep 1-136, printed without the tag): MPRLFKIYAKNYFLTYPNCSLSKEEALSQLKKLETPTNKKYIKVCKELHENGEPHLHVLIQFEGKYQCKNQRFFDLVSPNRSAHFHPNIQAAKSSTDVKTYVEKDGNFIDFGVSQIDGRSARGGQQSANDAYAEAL
Procedure: as §1

[10] = tested on: T10, Rep nickase domain of wheat dwarf virus
T10 sequence (Rep 1-137, printed without the tag): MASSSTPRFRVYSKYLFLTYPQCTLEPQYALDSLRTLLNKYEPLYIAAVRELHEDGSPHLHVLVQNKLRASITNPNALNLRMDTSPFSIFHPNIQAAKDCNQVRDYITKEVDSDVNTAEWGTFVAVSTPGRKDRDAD
Procedure: as §1

| Sequence | uncleaved DNA left (log2) [1] | uncleaved DNA left (log2) [2] | uncleaved DNA left (log2) [3] | uncleaved DNA left (log2) [4] | uncleaved DNA left (log2) [5] | uncleaved DNA left (log2) [6] | uncleaved DNA left (log2) [7] | uncleaved DNA left (log2) [8] | uncleaved DNA left (log2) [9] | uncleaved DNA left (log2) [10] |
| --- | --- | --- | --- | --- | --- | --- | --- | --- | --- | --- |
| TTCACGC | 0.128 | -0.0149 | 0.192 | -0.312 | 0.0653 | -0.217 | 0.136 | -0.0144 | -0.00997 | 0.0427 |
| TCCCCTG | -0.194 | -0.104 | -0.075 | -0.352 | -0.0448 | -0.0947 | -0.026 | -0.125 | -0.168 | -0.0186 |
| CTACAAC | -0.22 | -0.0973 | -0.394 | -2.43 | -0.0174 | -0.835 | -0.111 | -0.222 | -0.215 | -0.119 |
| ATCTATG | -0.00368 | 0.0174 | -0.444 | -0.409 | 0.0931 | -1.02 | 0.286 | 0.0638 | 0.0612 | 0.0553 |
| CAATCAA | -0.082 | 0.151 | 0.169 | 0.513 | -0.137 | 0.15 | -0.0428 | 0.0769 | 0.14 | 0.112 |
| ATTGGGT | -0.0266 | 0.0177 | 0.0569 | 0.985 | -0.0513 | 0.877 | 0.112 | 0.0473 | -0.0764 | -0.125 |
| TGAATTT | -0.00227 | 0.000419 | 0.0767 | -2.48 | 0.0158 | -0.278 | -0.43 | -0.0631 | 0.0442 | -0.0656 |
| AGCGAGA | -0.0335 | 0.147 | 0.207 | 0.721 | 0.151 | 1.29 | 0.0891 | 0.0664 | 0.0475 | 0.114 |
| CCGGATA | -0.0714 | -0.189 | 0.105 | 0.48 | -0.0777 | 0.972 | 0.053 | -0.00855 | -0.134 | -0.108 |
| TGAACAG | -0.00246 | 0.0102 | -0.365 | -0.522 | -0.0624 | -0.868 | 0.0439 | -0.00882 | -0.0207 | 0.0337 |
| GACATGT | 0.00106 | -0.0455 | 0.483 | 1.19 | -0.0908 | 1.48 | 0.042 | -0.0552 | -0.126 | -0.00928 |
| GCGATAG | 0.0373 | -0.00548 | -0.0379 | 0.495 | 0.023 | 0.499 | 0.0776 | 0.138 | -0.0131 | 0.00566 |
| TGTCTTT | -0.0265 | -0.0697 | 0.024 | -1.2 | -0.0513 | 0.236 | -0.474 | -0.123 | 0.00594 | -0.115 |
| GAAAACT | 0.107 | 0.0622 | -1.42 | -2.28 | 0.0111 | 0.554 | -0.728 | -0.0804 | 0.0816 | -0.234 |
| TTTCCGG | -0.0426 | 0.0376 | 0.547 | 1.48 | -0.0586 | 2.02 | 0.0713 | 0.102 | -0.0148 | 0.0963 |
| AAGGGCG | 0.0571 | 0.0977 | -0.808 | 0.0692 | 0.0481 | -0.801 | 0.0917 | -0.032 | 0.0604 | -0.0943 |
| GGCCGAA | 0.115 | 0.216 | 0.749 | 1.58 | 0.27 | 1.96 | 0.248 | 0.115 | 0.135 | 0.281 |
| GCTAGTC | 0.00465 | 0.151 | 0.213 | 0.6 | 0.106 | 0.119 | 0.132 | 0.141 | 0.105 | 0.0352 |
| ATTCTTA | -0.206 | -0.163 | -0.134 | -1.43 | -0.107 | -0.626 | -0.4 | -0.0782 | -0.019 | 0.0276 |
| AGGACTG | -0.0109 | -0.0161 | 0.0225 | 0.626 | -0.0465 | 1.73 | -0.0701 | 5.04e-05 | -0.109 | 0.0989 |
| TTTTCCA | -0.212 | -0.0414 | 0.0734 | -1.08 | -0.168 | -0.00729 | -0.415 | -0.128 | -0.0149 | -0.0722 |
| CTAGAAG | 0.00165 | 0.0806 | -0.712 | -0.376 | 0.169 | -0.95 | 0.362 | 0.204 | 0.194 | -0.136 |
| GGCGGTT | 0.0605 | -0.018 | 0.262 | 0.603 | -0.101 | 1.35 | -0.156 | -0.0913 | 0.00997 | 0.0316 |
| GTCAACG | -0.0286 | -0.0273 | 0.0831 | 0.455 | -0.0545 | 0.69 | 0.177 | 0.159 | 0.0831 | -0.0562 |
| TGTTGAT | -0.323 | 0.0364 | 0.202 | 0.24 | 0.158 | 0.81 | -1.22 | 0.0764 | 0.0949 | 0.0624 |
| GTCTAGG | 0.153 | 0.139 | 0.467 | 1.09 | 0.0526 | 1.8 | 0.104 | 0.122 | 0.0637 | 0.146 |
| AACGGGC | 0.0224 | 0.0347 | 0.431 | 0.656 | 0.00316 | 0.835 | 0.0495 | 0.0879 | -0.0912 | -0.0179 |
| AACAGGG | 0.0775 | -0.045 | -0.283 | -0.338 | 0.0664 | -1.04 | 0.213 | 0.116 | 0.0379 | 0.0185 |
| ATAAGAG | 0.0198 | 0.0696 | -0.753 | -0.456 | 0.162 | -1.17 | 0.222 | 0.0432 | 0.0711 | 0.0333 |
| TTGTGTC | 0.155 | -0.0263 | -0.0957 | -0.334 | 0.177 | -0.901 | 0.0501 | 0.0354 | 0.168 | 0.029 |
